To fix the notation:
T1: UNK ZnF1-3 (human, UniProt Q9C0B0 31-174)
T1 sequence: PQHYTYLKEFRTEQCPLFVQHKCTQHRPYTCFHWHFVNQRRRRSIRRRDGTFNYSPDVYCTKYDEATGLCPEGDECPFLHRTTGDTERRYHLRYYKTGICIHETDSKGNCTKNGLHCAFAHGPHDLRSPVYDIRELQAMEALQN

B1: chrX:71549762:71549763:+_ENSMUSG00000019087_ENSMUST00000019231|mus_mus|mus_mus_mus_hu_False|1_58 (ssRNA)
RNA: GGGAGUUCUACAGUCCGACGAUCAAACCCGUGUACUUCUUAUUGUUAGCACAACAUCACCAGAAAACGAUAACGACAGCUAAGCUGGACAGACAGUUAAGUAGUACUUCCACACUCCCAAACUCAGGGAGCCCUAUAGUUCAUCAACAGAGGAUUGAGCAUCA
B2: 29164335_29165192_1745_CDS_ENSG00000163811_ENST00000407426|human|control|control (ssRNA)
RNA: GGGAGUUCUACAGUCCGACGAUCCUCUGAUGCUGUUACUUGUGUAAUUAGAAGAAUAAGCUUUCCAUGAAGGUGUGAAAGUUUCUGAAAAGUUUUGACUCUGCUUUCCAUUAACUGGUAGAGUGUCCCCAGCUGGGGUACCAGCAACAGAGGAUUGAGCAUCA
B3: 59845268_59847144_1439_CDS_ENSMUSG00000035469_ENSMUST00000043227|mouse|control|control (ssRNA)
RNA: GGGAGUUCUACAGUCCGACGAUCACUAUCAAAUUCUUUCUUCAGUGACUCUGCAACUGUUAAAAAGUCUUCAUGCUCUACAGACAGGAGGCGCCAUGAGACAGCCGGGGUGCCAAAGCAGGCAAACACGUCAUCGGUGCAGCACAACAGAGGAUUGAGCAUCA
B4: chr1:58468927:58468928:-_ENSMUSG00000026034_ENSMUST00000148330|mus_mus|mus_mus_mus_hu_False|28_88 (ssRNA)
RNA: GGGAGUUCUACAGUCCGACGAUCAAUUACUGAAAAAGAUGUUCAUUUAUUUGGUUUUGUACUUAAUGAACCAAAUUACCCAAACAAAAUAAACAUGGCAAUAUAAAAAGCUAUACAAUUUACAAAGCUGUACAAAAUAACUUACAACAGAGGAUUGAGCAUCA
B5: chr4:124323795:124323796:+_ENSG00000164056_ENST00000339241|hu_mus|FALSE|FALSE (ssRNA)
RNA: GGGAGUUCUACAGUCCGACGAUCCCACUCCUAUUGAGGCCCAUCCAAGGCAGGAGAGACUCGAGAAGAAAAUCUGCCUCUAAUACCAACAGCCAAAGUUUGGAAGCUAGACAUUCCGCGGAGGUCCAACCCACCUCCAGAAGUCAACAGAGGAUUGAGCAUCA
B6: chr18:45374997:45374998:-_ENSG00000175387_ENST00000586040|hu_hu|FALSE|FALSE (ssRNA)
RNA: GGGAGUUCUACAGUCCGACGAUCUGAGGGCUGUGAUGCAUGGAAGGUUUCUCCAACCCUCUGAUUUAAUUCAUAAUAUGCUAUCGAACACCAAAAUGCAGGUUCUGAGUAAGUAACUGGCUGUAAAUCCAAGCUAUGAUUAACCAACAGAGGAUUGAGCAUCA
B7: chr1:68170538:68170539:-_ENSG00000172380_ENST00000370982|hu_hu|motif|central (ssRNA)
RNA: GGGAGUUCUACAGUCCGACGAUCUUAGGAUACUCUUUACUUUUUGUACAAUAACGAUAUGAAAGGAAUUUUUUAUUCGGCCGGUACACAGCUCAAAAUAAAGGUAUAACUUCUGGAACUGAGAAACUGAUGGUAUGGAGAGAGCAACAGAGGAUUGAGCAUCA
B8: chr13:100201707:100201708:-_ENSMUSG00000052727_ENSMUST00000064762|mus_mus|motif|central (ssRNA)
RNA: GGGAGUUCUACAGUCCGACGAUCACUGACGUCUAUUUGUGUUGGAGAUACAUCUCCUCCCAAUUUCCUUUCAUCCAAAGCGGGAGCUGAUUGAGAACUCAUGGUUUCAACAUCACUGGUUUUCUUUUCUGGACCAAAGUCUUCCAACAGAGGAUUGAGCAUCA
B9: 48025950_48026070_549_CDS_ENSG00000116062_ENST00000540021|human|control|control (ssRNA)
RNA: GGGAGUUCUACAGUCCGACGAUCCCUAGAGCUUUUCCUUUUAAGAGAGCCAUUUCCAGUCACCAUUCUCUUCCGCUUUCGAGCAACUUUGACAGGGCUGUUCAGGCCUUCACUCUCACUAUCCCCCACUCCACUGCUUAUUUCCAACAGAGGAUUGAGCAUCA
B10: chr17:37088456:37088457:-_ENSMUSG00000036398_ENSMUST00000040402|mus_mus|motif|central (ssRNA)
RNA: GGGAGUUCUACAGUCCGACGAUCGUAACCGUUGUCUCAGUGACGGUCUCACUUAUCCCGGCCCCUGUCUCCGCCAUGGCGGAAGCGAAAAGCGAGAAAGCGGGAUGAGACACCCUUUCCUUUUUCUGAGCCUCAGAGAUCUAACAACAGAGGAUUGAGCAUCA
B11: chr10:120833061:120833062:-_ENSG00000107581_ENST00000369144|perfect_dup|FALSE|FALSE (ssRNA)
RNA: GGGAGUUCUACAGUCCGACGAUCCUGAGAUUCUUCUUUAGCAGCUUCAGUUUUUUCCUCUGCCAUUUUCAAAUAUGCCCUAACAACAUCCUCCAGAGAUUUUAUGUUCACCUGUUGACAAAUGUUCUUAUACUGGUAUAACCCCAACAGAGGAUUGAGCAUCA
B12: chr11:88578658:88578659:-_ENSMUSG00000069769_ENSMUST00000107909|perfect_dup|motif|central (ssRNA)
RNA: GGGAGUUCUACAGUCCGACGAUCGGAGCGUUUCGUAGUGGGAUCUCUCAUGACCAUACAUUCUCUAAUUUCUCCAAAUUUGCGGAAAUAGUCUCUAAGGCUAUCUGGUGAGGUCUGCCAGCUCAGUCCACCGAUAAACAUUUUCAACAGAGGAUUGAGCAUCA
B13: chr1:121442827:121442828:-_ENSMUSG00000026383_ENSMUST00000052404|mus_mus|motif|central (ssRNA)
RNA: GGGAGUUCUACAGUCCGACGAUCAAACAACAAAUGAACAUGAUACCUGCCAAAUGAAAAGACAAGAAGCUUUCUUAGAAACGGUGUUCCCAGGUGUAGUGGCAUAGCCUUUAAUGAAGCACUCAGGAGGCAGAGGCAGGAGGACAACAGAGGAUUGAGCAUCA
B14: 209119718_209119838_79_3pUTR_ENSG00000138413_ENST00000345146|human|control|control (ssRNA)
RNA: GGGAGUUCUACAGUCCGACGAUCGACUCACAACCACAGCCUGGCAAUCCCAAACCGGACUCCCAGUGCCUCCGCUUCUGAAGUAGACUCUGCAGAAACCCGGGACCACAGGGUAGGUCCGAGCUUUUCCUCUUCCCGGCUUUGCAACAGAGGAUUGAGCAUCA
B15: 131447145_131447996_338_3pUTR_ENSMUSG00000028911_ENSMUST00000053819|mouse|control|control (ssRNA)
RNA: GGGAGUUCUACAGUCCGACGAUCCUGCGUCCCGAGCCGUAGCUGCCAUCCCGCCGCGGGCCUCGAGCGUGCUCAACAAUGACUCGCUCGCCACACAGGUCUUUGCCGUUCAGUUCAUAAACAGCAUCGUCUGCAUCACGCAGACAACAGAGGAUUGAGCAUCA
B16: chr8:30643436:30643437:-_ENSG00000104695_ENST00000221138|hu_hu|motif|central (ssRNA)
RNA: GGGAGUUCUACAGUCCGACGAUCUUUUCUUAAAAAUAAAACUCCAACUCUAUUAAUCCAUGCCAGUUAAACACUAUAACGGAAAUUUCCAAAUAAGCGCAAAAGGAGAUGAAGCAGUUAGUUACCUUUUUUGCUUGAACAGUCCAACAGAGGAUUGAGCAUCA
B17: chr7:141450121:141450122:+_ENSG00000106028_ENST00000265304|hu_mus|hu_hu_hu_mus_True|18_68 (ssRNA)
RNA: GGGAGUUCUACAGUCCGACGAUCUCAUCCGUUCUAUGCCUUUUCUUUUGUCUGGUCACUCAGAAAUAUAAUAUUAUCAGCUAUGAUUGUUGUUGCUUGCCGCCUCACAUUGUUUUUAUCCAUGUAUUCGCCAUAGUCCACUUUCAACAGAGGAUUGAGCAUCA
B18: chr5:71490152:71490153:+_ENSG00000131711_ENST00000296755|hu_hu|motif|central (ssRNA)
RNA: GGGAGUUCUACAGUCCGACGAUCUACAUUGAGAAAUACAACUCCUAAGUCAGGGGAGAUGAGGUUUUUCAUCCAGUCACGGUUUGUGGUGGAGCCCUGGGACUGUUCUUCCUCGAGCUCUGCAAUUUUCCGCUGUAACAUGCUCAACAGAGGAUUGAGCAUCA
B19: chr15:60656694:60656695:-_ENSG00000182718_ENST00000451270|hu_mus|FALSE|FALSE (ssRNA)
RNA: GGGAGUUCUACAGUCCGACGAUCUCUCUGAUAGGCGAAGGCAAUGUCCUGCCUCUGCACAUUGCUGCGGUUUGUCAGGAUGUUGACAAUGGUGACCUCAUCCACUCCUUUGGUCUUGACUGCUGUCUCAAUGUUCAGAGCAUCCAACAGAGGAUUGAGCAUCA
B20: chr2:176793893:176793894:-_ENSG00000144320_ENST00000272748|hu_mus|FALSE|FALSE (ssRNA)
RNA: GGGAGUUCUACAGUCCGACGAUCCAAAGAAAAACGCUGCCAGGUCAUCUUUAUUUUCCUUAACAAAACACACACACACACACAAAAACCAUUUAUAUAUCAUCAUUAUAUUACAAAUAUAAAUAAUACCAAGAAUUCAAGUACCAACAGAGGAUUGAGCAUCA
B21: chr3:72423869:72423870:-_ENSG00000163602_ENST00000477973|hu_mus|FALSE|FALSE (ssRNA)
RNA: GGGAGUUCUACAGUCCGACGAUCGCAGAAUUCAUAAAUAGACAUUUCUAUUUAAAGCAGGAAAAUGAUAAAGUGGCUUCUAAUAACAGUCGUGCACAUGCCAAUAACAGGAAUAUAUUAACAUCUUUUAUUUGCUAGACAAAGCAACAGAGGAUUGAGCAUCA
B22: chr2:117085994:117085995:+_ENSMUSG00000027349_ENSMUST00000028825|mus_mus|FALSE|FALSE (ssRNA)
RNA: GGGAGUUCUACAGUCCGACGAUCAGACUUGGGGACCCCGAGGGCAUCACAUACAGCUUGAACUUCCUGGCAAAUUUCACUAUUUUUAUCUAACUGAGAAUUUUUAUGUUUUUUCUUCUGUAAUAUUUGUAAAGCUUGAAGUUCCAACAGAGGAUUGAGCAUCA

Experimental findings from article PMC12136788 are described below.

Some of the results follow.

This assay addresses T1, UNK ZnF1-3. The assay can be described thus: nsRBNS (natural sequence RNA bind-n-seq); RBNS binding buffer (assumed for nsRBNS): 25 mM Tris pH 7.5, 150 mM KCl, 3 mM MgCl2, 0.01% Triton X-100, 500 ug/ml BSA, 20 U/ml SUPERase-In, 4 C; UNK is unkempt and MSI1 is Musashi-1; names of the RNAs are library labels; protein concentration not given here; high values mean tight binding.
With B1, the binding signal worked out at 1.18 enrichment R.

In turn, B2 came in with a binding signal of 0.926 enrichment R. The result for B3 reads 1.44 enrichment R; that for B4, 0.432 enrichment R; that for B5, 1.34 enrichment R. B6: the binding signal was determined as 1.11 enrichment R. To B7 belongs 1.29 enrichment R; to B8, 0.376 enrichment R; to B9, 0.761 enrichment R.

Regarding B10, the binding signal came to 0.692 enrichment R.

Regarding B11, the binding signal was 0.835 enrichment R. B12 displayed a binding signal of 0.875 enrichment R.

For the molecule B13, the binding signal is 1.5 enrichment R.

B14 yielded a binding signal of 0.535 enrichment R. Molecule B15 displayed a binding signal of 0.763 enrichment R.

Molecule B16 yielded a binding signal of 1.04 enrichment R. The result for B17 reads 0.537 enrichment R. To B18 belongs 0.83 enrichment R; to B19, 0.495 enrichment R. The result for B20 reads 2.01 enrichment R; that for B21, 0.996 enrichment R; that for B22, 1.24 enrichment R.
